# This is one part of the list.
# B1: PhoQ; a variant is named by its letters at X, in order, P23837 (parent)
# chain: MKKLLRLFFPLSLRVRFLLATAAVVLVLSLAYGMVALIGYSVSFDKTTFRLLRGESNLFYTLAKWENNKLHVELPENIDKQSPTMTLIYDENGQLLWAQRDVPWLMKMIQPDWLKSNGFHEIEADVNDTSLLLSGDHSIQQQLQEVREDDDDAEMTHSVAVNVYPATSRMPKLTIVVVDTIPVELKSSYMVWSWFIYVLSANLLLVIPLLWVAAWWSLRPIEALAKEVRELEEHNRELLNPATTRELTSLVRNLNRLLKSERERYDKYRTTLTDLTHSLKTPLXXLQXXLRSLRSEKMSVSDAEPVMLEQISRISQQIGYYLHRASMRGGTLLSRELHPVAPLLDNLTSALNKVYQRKGVNISLDISPEISFVGEQNDFVEVMGNVLDNACKYCLEFVEISARQTDEHLYIVVEDDGPGIPLSKREVIFDRGQRVDTLRPGQGVGLAVAREITEQYEGKIVAGESMLGGARMEVIFGRQHSAPKDE
# Variants of: B1
# Assay: enrichment ratio after two sorts for PhoP signalling (ratio (wild type AVST 3.29)); higher = more functional
# Settings: with PhoP (E. coli)
row,Variant,enrichment ratio
1,MGVT,≤ 0.25
2,WARN,≤ 0.25
3,LWFS,≤ 0.25
4,KTMK,≤ 0.25
5,GNNG,≤ 0.25
6,QAIT,≤ 0.25
7,PSEY,≤ 0.25
8,KEWF,≤ 0.25
9,VPTH,≤ 0.25
10,YKSF,≤ 0.25
11,VLDE,≤ 0.25
12,HCTT,≤ 0.25
13,RWPR,≤ 0.25
14,DMSM,≤ 0.25
15,LHKS,≤ 0.25
16,NNQI,2.97
17,LCCW,≤ 0.25
18,MGFY,4.26
19,PGWI,≤ 0.25
20,IPDF,≤ 0.25
21,MICC,29.6
22,IMYL,≤ 0.25
23,TWNH,≤ 0.25
24,SKCC,5.39
25,WPNI,≤ 0.25
26,ADMS,≤ 0.25

row,Variant,enrichment ratio
1,FPRG,≤ 0.25
2,PNFR,≤ 0.25
3,DIMK,≤ 0.25
4,FDCT,≤ 0.25
5,VLQA,≤ 0.25
6,IQQI,≤ 0.25
7,ILHQ,≤ 0.25
8,FMDS,≤ 0.25
9,WRLP,≤ 0.25
10,STPT,0.34
11,INHV,≤ 0.25
12,YTPY,≤ 0.25
13,WDSN,≤ 0.25
14,DANC,≤ 0.25
15,WYAD,≤ 0.25
16,RQTW,≤ 0.25
17,RFHI,≤ 0.25
18,VTPY,≤ 0.25
19,HLRG,≤ 0.25
20,VRFM,≤ 0.25
21,TINK,7.27
22,LRWA,≤ 0.25
23,HGGI,≤ 0.25
24,GPMR,≤ 0.25
25,GHWP,≤ 0.25
26,MIHR,≤ 0.25

row,Variant,enrichment ratio
1,FGIG,≤ 0.25
2,RTGC,≤ 0.25
3,SVTQ,4.76
4,FKNL,≤ 0.25
5,NSHT,≤ 0.25
6,AQYD,≤ 0.25
7,MLVV,≤ 0.25
8,LCQT,≤ 0.25
9,YRFQ,≤ 0.25
10,LNIH,≤ 0.25
11,FCTY,≤ 0.25
12,YTTS,≤ 0.25
13,RGMT,≤ 0.25
14,YFWQ,≤ 0.25
15,VFHE,≤ 0.25
16,PTMD,≤ 0.25
17,YTDA,≤ 0.25
18,KESC,≤ 0.25
19,IIWK,≤ 0.25
20,IQMD,≤ 0.25
21,EFQW,≤ 0.25
22,HGSF,≤ 0.25
23,QSLM,≤ 0.25
24,TGHF,1.61
25,GQIR,≤ 0.25
26,QGLV,7.45

row,Variant,enrichment ratio
1,LLGC,≤ 0.25
2,AREM,≤ 0.25
3,VWFP,≤ 0.25
4,PLQN,≤ 0.25
5,PGKA,≤ 0.25
6,IYGS,≤ 0.25
7,HWPL,≤ 0.25
8,FQYN,≤ 0.25
9,LHYQ,≤ 0.25
10,SDMA,7.11
11,IYIT,≤ 0.25
12,RMFA,≤ 0.25
13,LDAW,≤ 0.25
14,TLEC,≤ 0.25
15,SARG,≤ 0.25
16,GQAN,≤ 0.25
17,QAWC,2.72
18,KCCH,≤ 0.25
19,RYLL,≤ 0.25
20,NFYH,≤ 0.25
21,WGKD,≤ 0.25
22,TQKI,≤ 0.25
23,PSAL,≤ 0.25
24,QLKH,≤ 0.25
25,NKHN,≤ 0.25
26,FNDY,≤ 0.25

row,Variant,enrichment ratio
1,SIAD,7.06
2,YKLW,≤ 0.25
3,QIIH,≤ 0.25
4,REFW,≤ 0.25
5,KHWY,≤ 0.25
6,FYHG,≤ 0.25
7,NEVF,≤ 0.25
8,GMNH,≤ 0.25
9,FTST,≤ 0.25
10,KPVP,≤ 0.25
11,EWLR,≤ 0.25
12,VFAW,≤ 0.25
13,WECV,≤ 0.25
14,VCTF,≤ 0.25
15,QLKS,≤ 0.25
16,DNYV,≤ 0.25
17,GCMW,≤ 0.25
18,WPAQ,≤ 0.25
19,THDS,≤ 0.25
20,QNHV,≤ 0.25
21,HQNR,≤ 0.25
22,SKKR,0.677
23,WDHK,≤ 0.25
24,GNYV,≤ 0.25
25,GQMH,≤ 0.25
26,TAAE,≤ 0.25

row,Variant,enrichment ratio
1,RMHK,≤ 0.25
2,GTWE,≤ 0.25
3,QAYL,9.56
4,RCIW,≤ 0.25
5,GLQM,≤ 0.25
6,GTFI,≤ 0.25
7,YLPY,≤ 0.25
8,SCET,≤ 0.25
9,IGHD,≤ 0.25
10,YMLG,≤ 0.25
11,SIEP,≤ 0.25
12,IMHV,≤ 0.25
13,PGVC,≤ 0.25
14,YEAF,≤ 0.25
15,MAFV,6.76
16,FCRT,≤ 0.25
17,FQIM,≤ 0.25
18,QSLA,≤ 0.25
19,RWFE,≤ 0.25
20,HTPE,≤ 0.25
21,ISQY,≤ 0.25
22,FGEV,≤ 0.25
23,VMHC,≤ 0.25
